PubChem BioAssay AID1345082 (National Center for Advancing Translational Sciences (NCATS), 2018)
About 4,000 (4.3%) of roughly 94,000 compounds were called active. The shares of active, inactive and inconclusive entries below differ from those in the screen. The call rests on the fitted dose curve; in most records, active means well fitted inhibition curve with a large enough effect; inconclusive means small, poorly fitted or top-dose-only effect; inactive means no such curve, though single readings can be large or run the other way. Where the call is inconclusive, the potency comes from a doubtful curve fit.

Assay: Cytotoxic Profiling in NIH 3T3 Cell Line of Diverse Libraries Using Quantitative High-Throughput Screening; further: nearly all actives have a fitted effect of over 55% in size
Conditions: NIH 3T3 viability, CellTiter-Glo ATP luminescence, 48-72 h; activity change, negative = cytotoxicity: at 96.7 µM (top of the series) unless noted; series mostly up to 96.7 µM
Method in brief: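 Cytotoxicity is measured as loss of cellular ATP: NIH 3T3 cells (400/well) are exposed to compound for 48 or 72 hr at 37 °C, then CellTiter-Glo luminescence is imaged after 10 min at room temperature.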
On the % scale 0 is the no-effect control and ±100 the full control effect; potency means the concentration at half of the fitted maximal effect; tags describe the fitted curve by direction and shape.

SMILES | Potency | activity change, negative = cytotoxicity | outcome
Cc1nn2c(c1-c1ccccc1C(N)=O)N(C(=O)Cc1cccc(F)c1)CCC2 | inconclusive: 7.08 µM [inhibitor, full curve, poor fit] |  | 
CCOC(=O)N1CCCC1c1noc2nc(C)cc(C(=O)NC)c12 (stereo not given) |  | inactive: -4% | 
O=C(CCc1ccccc1)N1CCOc2ccc(CN3CCc4ccccc4C3)cc2C1 | inconclusive: 50.1 µM [inhibitor, partial curve, poor fit] |  | 
CC(c1cccs1)N(C)Cc1ccsc1 (stereo not given) |  | inactive: -6.7% [at 174 µM] | 
Cc1nn(-c2ccccc2)c2c1C(C1CC1)N(C1CN(C(=O)c3ccncc3)C1)C2=O (stereo not given) |  | inactive: -1.2% | 
CCCc1noc(-c2cn(C3CCN(C(=O)c4ccccc4)CC3)nn2)n1 | inconclusive: 70.8 µM [inhibitor, single point] |  | 
Cc1noc(C)c1CN1CCC(NC(=O)C2CCC2)CC1 |  | inactive: -5.64% | 
COc1cc2c(cc1-c1ccc(S(C)(=O)=O)cc1)OCC(C)(C)CC2CO (stereo not given) | inconclusive: 50.1 µM [inhibitor, partial curve, poor fit] |  | 
Cc1nn2c(c1-c1ccccc1C(C)C)N(Cc1ccc(C(=O)O)s1)CCC2 | inconclusive: 4.47 µM [inhibitor, full curve, poor fit] |  | 
COc1ccc(-c2ccc3nnc(CNC(=O)c4ccc(F)c(Cl)c4)n3n2)cc1 |  | inactive: -15.4% | 
Cc1ccc2c(n1)N(C)[C@H](CO)CCN(Cc1ccc(OC(F)(F)F)cc1)C2 | inconclusive: 20 µM [inhibitor, partial curve, poor fit] |  | 
CCC(=O)N1CCC2(CC1)CC(N(Cc1ccccc1)C1CC1)CCO2 (stereo not given) |  | inactive: 2.33% | 
CNC(=O)[C@@H]1CN(C(=O)c2cocn2)C[C@H]1COC |  | inactive: 4.2% | 
COCc1ccc2c(c1)c(OC(C)(C)C(=O)NCC1CCOCC1)nn2Cc1ccccc1 | inconclusive: 10 µM [inhibitor, full curve, poor fit] |  | 
COc1cccc(CNC(=O)C2c3ccccc3CC(=O)N2C(C)C)c1 (stereo not given) |  | inactive: 1.66% | 
CN(C)c1cccc(C(=O)Nc2ncc(-c3cnn(C)c3)c3c2OCC3)c1 | inconclusive: 100 µM [inhibitor, partial curve] |  | 
C[C@H]1[C@@H]2[C@@H](O)C([C@H](C)C(=O)NCc3ccccc3)CC[C@@]2(C)CC[C@@H]1NC(=O)c1ccc(C#N)cc1 (stereo not given in full) | inconclusive: 50.1 µM [inhibitor, partial curve, poor fit] |  | 
CNC(=O)c1cc(-c2ccc(F)cc2OC)cc2c1OCCN2Cc1cccnc1 | inconclusive: 89.1 µM [inhibitor, partial curve] |  | 
Cc1noc(C)c1-c1cc(-c2ccncc2)cn2cncc12 | inconclusive: 39.8 µM [inhibitor, partial curve, poor fit] |  | 
Cc1ccc2[nH]c(CN3CC[C@H]4NCCC[C@]4(CO)C3)cc(=O)c2c1 |  | inactive: -7.37% | 
C[C@H]1[C@@H]2[C@@H](O)C([C@H](C)C(=O)NCc3ccc(F)cc3)CC[C@@]2(C)CC[C@@H]1NC(=O)Cc1ccccc1 (stereo not given in full) | inconclusive: 44.7 µM [inhibitor, partial curve, poor fit] |  | 
O=C(N[C@@H]1CN(Cc2ccccn2)CCC[C@H]1O)c1ccc(OCc2ccccc2)cc1 | inconclusive: 22.4 µM [inhibitor, full curve, poor fit] |  | 

SMILES | Potency | activity change, negative = cytotoxicity | outcome
CCc1nc2c(c(-c3ccc(O)cc3)n1)CN(Cc1ccc(C(F)(F)F)cc1)CC2 | inconclusive: 50.1 µM [inhibitor, partial curve, poor fit] |  | 
O=C(CCC[C@H]1NC[C@@H]2CC1CN(Cc1ccccc1)C2)NCCCc1ccccc1 | inconclusive: 44.7 µM [inhibitor, partial curve, poor fit] |  | 
Cc1noc2c(NC3CCC(O)CC3)cc(-c3ccc(F)cc3)nc12 (stereo not given) | active: 22.4 µM |  | 
Cc1oc(-c2cccc(F)c2F)nc1CN(C)Cc1ccc(C(F)(F)F)cc1 |  |  | inactive
COCCn1c(=O)c(C(=O)N2CCOCC2)nc2cccnc21 |  | inactive: -15.5% [at 138 µM] | 
Cc1ccc(C(=O)Nc2cccn3nc(C4CCC4)nc23)cc1C | inconclusive: 56.2 µM [inhibitor, partial curve, poor fit] |  | 
Cc1cccc(C(=O)NCC(=O)N2CCCCCCNC(=O)CC2c2ccccc2)c1 (stereo not given) |  | inactive: -7.11% | 
C#CCNC(=O)c1cc(-c2ccc(Cl)nc2)nc2c1cnn2C | inconclusive: 17.8 µM [inhibitor, full curve, poor fit] |  | 
Cc1nn2c(c1-c1ccccc1OCc1ccccc1)N(C(=O)COc1ccccc1)CCC2 | active: 11.2 µM |  | 
Cn1nc(C2CCCN2)c2c(C(=O)NCc3cccs3)cc(C3CC3)nc21 (stereo not given) | inconclusive: 70.8 µM [inhibitor, single point] |  | 
O=C(COc1ccccc1-n1cnnc1)NC1CCCc2c1[nH]c1ccccc21 (stereo not given) | inconclusive: 44.7 µM [inhibitor, partial curve, poor fit] |  | 
O=C(NCCCn1nccc1C1CC1)c1ccccc1C1CCNC1 (stereo not given) |  | inactive: -6.87% | 
Cc1ccc(NC(=O)N2Cc3[nH]cnc3C[C@H]2c2nc(-c3ccc(Cl)cc3)no2)cc1 | inconclusive: 100 µM [inhibitor, partial curve, poor fit] |  | 
CN(C)c1cccc(Nc2cc3c(cn2)CN(Cc2ccccc2)CCN3)c1 | active: 44.7 µM |  | 
CCc1ccc(C(=O)N2CCC(c3cc(-c4cccc(OC)c4)n[nH]3)CC2)cc1 | inconclusive: 50.1 µM [inhibitor, partial curve, poor fit] |  | 
Nc1nnnn1CC(=O)N[C@@H]1COCC[C@@H]1Oc1ccc(F)cc1 |  | inactive: -4.54% | 
COCC(=O)NC1CCN(Cc2cccc(-c3cccc(C)c3)c2)CC1 | inconclusive: 50.1 µM [inhibitor, partial curve, poor fit] |  | 
COCc1ncc(C)n1CCNC(=O)c1cc(-c2cccc(Cl)c2)n[nH]1 |  | inactive: -16.4% | 
CC(C)NC(=O)c1ccc2nnc(-c3ccc(C(F)(F)F)cc3)n2c1 |  | inactive: -23.5% | 
O=C(O)CCC(=O)N1Cc2ccccc2CC2(CCCN2CC2CCNCC2)C1 (stereo not given) |  |  | inactive
CC(=O)N1CCN(c2ncccc2-c2cc(-c3ccccc3)nc3c(C)noc23)CC1 | inconclusive: 56.2 µM [inhibitor, partial curve, poor fit] |  | 
COc1cccc(CC(=O)N2CC(Oc3ccc(-c4nc(-c5ccccc5)no4)cc3)C2)c1 | inconclusive: 28.2 µM [inhibitor, partial curve] |  | 

SMILES | Potency | activity change, negative = cytotoxicity | outcome
CCN(CC)Cc1nc(C2(O)CCN(C(=O)CCc3ccccc3)CC2)cs1 |  | inactive: -17.8% [at 174 µM] | 
Cc1ccc(OCC(=O)NCCC2CCN(C(=O)Nc3cc(F)cc(F)c3)CC2)cc1 | inconclusive: 50.1 µM [inhibitor, partial curve, poor fit] |  | 
COc1ccc(C(=O)N2CCCC(n3cc(-c4noc(C)n4)nn3)C2)cc1 (stereo not given) | inconclusive: 70.8 µM [inhibitor, partial curve, poor fit] |  | 
COc1cccc(CNC(=O)C2CCCN(c3cnn(Cc4ccccc4)c(=O)c3)C2)c1 (stereo not given) | inconclusive: 50.1 µM [inhibitor, partial curve, poor fit] |  | 
COCCN1C(=O)CS(=O)(=O)C12CCN(C(=O)CCc1cccc(OC)c1)CC2 | inconclusive: 70.8 µM [inhibitor, single point] |  | 
Cc1ccc(C(=O)Nc2cccc(-c3nnc4n3CCCC4)c2)c(C)c1 | inconclusive: 39.8 µM [inhibitor, partial curve, poor fit] |  | 
O=C(NC1CCCCC1)N1Cc2[nH]cnc2C[C@H]1c1nc(-c2ccncc2)no1 |  | inactive: -11.1% [at 174 µM] | 
COc1ccc(OCC(O)CN2CCC(=O)N(Cc3ccccc3)CCc3ccccc32)cc1 (stereo not given) | inconclusive: 31.6 µM [inhibitor, partial curve, poor fit] |  | 
CCN1CCCC2(Cc3ccccc3CN(C(=O)c3ccccc3)C2)C1 (stereo not given) | inconclusive: 79.4 µM [inhibitor, single point] |  | 
CC(C)n1cc2cc(C(=O)NCCc3ccncc3)sc2c1 |  | inactive: -22.9% | 
CC1(c2ccccc2)N(Cc2cccnc2)C(=O)OC12CCN(Cc1ccccc1)CC2 (stereo not given) | inconclusive: 100 µM [inhibitor, single point] |  | 
CCn1cc(S(=O)(=O)N2CCC3(CC2)CN(C2CCC2)CC3COC)cn1 (stereo not given) | inconclusive: 70.8 µM [inhibitor, single point] |  | 
COc1ccc(CN2CC3(CCN(S(=O)(=O)c4cc(F)ccc4F)CC3)C2=O)cc1 | inconclusive: 44.7 µM [inhibitor, partial curve, poor fit] |  | 
c1ccc(CN2C[C@@H]3CC[C@H](C2)N(Cc2ccc4nsnc4c2)C3)nc1 | inconclusive: 79.4 µM [inhibitor, partial curve] |  | 
CCN(CC)CCNC(=O)C1CCCN(S(=O)(=O)c2ccccc2)CCC(=O)NCC1 (stereo not given) |  |  | inactive
CCCC(=O)N1Cc2ccccc2CC2(CCCN(C)C2)C1 (stereo not given) | inconclusive: 70.8 µM [inhibitor, partial curve] |  | 
COc1cc(F)ccc1-c1nc(N2CCOCC2)cc2c1CN(CC(F)(F)F)C2=O | inconclusive: 10 µM [inhibitor, full curve] |  | 
O=C(NCC1CCCCC1)c1cn2cc(-c3ccc(C(F)(F)F)cc3)sc2n1 |  | inactive: -25.7% | 
NC(=O)c1cc(-c2ccccc2F)cc2c1OCCN2Cc1cccnc1 | inconclusive: 56.2 µM [inhibitor, partial curve, poor fit] |  | 
O=C(CC1=C2CCCCC2N(Cc2ccccc2)C1=O)N1CCc2ccccc2C1 (stereo not given) | inconclusive: 44.7 µM [inhibitor, partial curve, poor fit] |  | 
O=C(NC1CC1)C1COC2(CCN(C(=O)c3cccc([N+](=O)[O-])c3)CC2)N1C(=O)c1ccccc1 (stereo not given) | inconclusive: 70.8 µM [inhibitor, single point] |  | 
